# Test results taken from the supplement of paper PMC10338343.
# ± gives the standard deviation. Only a part is listed here, and it is no random draw.
# Tested on: MIWI (PIWIL1) piRISC loaded with piRNA #1 (30 nt)
# Test: pre-steady-state target cleavage rate (min^-1); MIWI and MILI are mouse PIWI proteins and EfPiwi is from a freshwater sponge; tags in brackets are library labels; higher = faster piRNA-guided slicing of the target
# Details: guide: piRNA #1 5'p-UGAGGUAGUAGGUUGUAUAGUAUCCAGAGG; auxiliary factor: 500 nM mouse GTSF1
# Procedure, shortened: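 The method was Cleave-'n-Seq, in which uncleaved targets from a transcribed, DNA-blocked target RNA library were sequenced after exposure to active affinity-purified piRISC carrying one synthetic guide, with or without GTSF1 partner protein. Reactions contained 0.1 nM library, 1 nM piRISC and, where present, 500 nM GTSF1 in HEPES–potassium acetate buffer at 33 °C for 0–8 or 0–960 min. Reads were normalised to depth and to weakly complementary targets, three trials were pooled, and k3 was capped at 0.0001 min^-1. The pre-steady-state cleavage rate came from a burst-and-steady-state fit.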
sequence,measurement,value
GGAGUGGAAACUAUACAACCUAGUACCUCA,pre-steady-state target cleavage rate,0.458 ± 0.065
GGAGACGAUUCUAAACAACCUACUACCUCA,pre-steady-state target cleavage rate,0.91 ± 0.1
GGAGACCUAACUUUAGAACCUACUACCUCA,pre-steady-state target cleavage rate,0.074 ± 0.019
GGAGACCUAUGUUUACAACCUACUACCUCA,pre-steady-state target cleavage rate,0.00469 ± 0.004
GGAGACCAUACUAAACAAGCUACUACCUCA,pre-steady-state target cleavage rate,0.678 ± 0.056
CCUCUGGAUUCUAUACAACCUACUACCUCA,pre-steady-state target cleavage rate,1.63 ± 0.095
GGAGACCUAUGAUAUCAACCUACUACCAGA [g4:g15:cont:t1A],pre-steady-state target cleavage rate,< 0.0001
GGAGAGGAUACUAUUACAACCUACUACCUCA,pre-steady-state target cleavage rate,1.23 ± 0.07
GGAGACCAUACUAUACAAGCUUCUACCUCA,pre-steady-state target cleavage rate,0.112 ± 0.011
GGAGACCUAACUAAACAACCUACUAGCUCA,pre-steady-state target cleavage rate,0.0502 ± 0.019
CCUCUGGAUACUUUACAACCUACUACCUCA,pre-steady-state target cleavage rate,1.99 ± 0.12
GGAGACCUAUGUUUACAACCUACUACGUCA,pre-steady-state target cleavage rate,0.00372 ± 0.0036
GCUGUGGAUACUAUACAACCUACUACCUGA,pre-steady-state target cleavage rate,0.776 ± 0.18
GGAGACCAUACUAUACAACCUACUCCUCA,pre-steady-state target cleavage rate,0.00356 ± 0.0031
CCUCUGGAUACUAUACGAACCUACUACCUCA,pre-steady-state target cleavage rate,0.0165 ± 0.0067
GCUCUGGAUACUAUACAACCUACAUCCUCA,pre-steady-state target cleavage rate,0.689 ± 0.043
GGAGACCUAACGAUACAACCUACUACCUCA,pre-steady-state target cleavage rate,0.725 ± 0.14
GGUCUGGAUACUAAACAACCUACUUCCUCA,pre-steady-state target cleavage rate,0.0875 ± 0.022
GGAGACCUAUCUAUACAACCUACUACCUCG [g2:g20:cont:t1G],pre-steady-state target cleavage rate,0.836 ± 0.058
GGAGACCUAACUUUACAACCUACUACGUCA,pre-steady-state target cleavage rate,0.0913 ± 0.019
GGACUGGAUACUAUACAUGCUACUACCUCA,pre-steady-state target cleavage rate,0.716 ± 0.061
GGACUGGAUACUAUACAACCAACUACCACA,pre-steady-state target cleavage rate,0.0843 ± 0.012
GGAGACCUAUGUAUACAACCUACUAACUCA,pre-steady-state target cleavage rate,0.268 ± 0.033
GGACUGGAUCACUAUACAACCUACUACCUCA,pre-steady-state target cleavage rate,1.41 ± 0.15
GGUCUGGAUACUAUUCAACCAACUACCUCA,pre-steady-state target cleavage rate,0.0882 ± 0.0072
GGAGACGAUUCUUUACAACCUACUACCUCA,pre-steady-state target cleavage rate,0.882 ± 0.088
GGAGACGAUACAAUACAACCUACUAGCUCA,pre-steady-state target cleavage rate,0.617 ± 0.051
GGACUCGAUACUAUACAACCUACUAGCUCA,pre-steady-state target cleavage rate,0.0879 ± 0.017
GCUCUGGAAAGUAUACAACCUACUACCUCA,pre-steady-state target cleavage rate,1.59 ± 0.085
GCUCUGGAUACUAAACAACCUACUACCACA,pre-steady-state target cleavage rate,1.65 ± 0.12
